This is an account of results in the CheMixHub viscosity set.

Each structure is given as a SMILES string. ± gives the uncertainty stated by the source. A number of entries come with more than one value. This list holds those alone. The source may hold further records. The records of an entry repeat one measurement (runs, samples, wells, individuals or studies). What stands in brackets tells the records apart. The letters are not those of the source and start again with each entry.

Broadly, the viscosity is the internal friction of a fluid under shear. A high value points to a thick fluid.

Consider `OCCO`, for which the viscosity reads like this: (293.15 K, 100 kPa) 21.44 ± 2.1 mPa·s [study A] and 21.3 ± 4.3 mPa·s [study B] and 20.9 ± 4.2 mPa·s [study C] and 21.3 ± 4.3 mPa·s [study D] and 20.3 ± 3 mPa·s [study E] and 20.86 ± 0.16 mPa·s [study F] and 21.02 ± 0.063 mPa·s [study G]; (293.15 K, 101 kPa) 19.79 ± 0.26 mPa·s [study A] and 21.35 ± 0.45 mPa·s [study B] and 21.4 ± 0.6 mPa·s [study C] and 21.44 ± 2 mPa·s [study D] and 20.71 ± 0.2 mPa·s [study E]; (298.15 K, 101 kPa) 17.7 ± 0.7 mPa·s [study A] and 17.67 ± 0.48 mPa·s [study B] and 16.55 ± 0.35 mPa·s [study C] and 18.64 ± 0.38 mPa·s [study D]; (303.15 K, 100 kPa) 14.33 ± 1.4 mPa·s [study A] and 14.33 ± 2.9 mPa·s [study B] and 13.49 ± 0.61 mPa·s [study C] and 13.54 ± 0.081 mPa·s [study D] and 13.49 ± 0.55 mPa·s [study E] and 13.53 ± 0.12 mPa·s [study F]; (303.15 K, 101 kPa) 13.27 ± 0.19 mPa·s [study A] and 13.53 ± 0.091 mPa·s [study B] and 13.53 ± 0.091 mPa·s [study C] and 14.33 ± 1.3 mPa·s [study D] and 13.53 ± 0.092 mPa·s [study E]; (313.15 K, 100 kPa) 10.01 ± 1 mPa·s [study A] and 9.34 ± 0.61 mPa·s [study B] and 9.52 ± 0.2 mPa·s [study C] and 9.34 ± 0.38 mPa·s [study D] and 9.577 ± 3 mPa·s [study E] and 9.59 ± 0.072 mPa·s [study F]. The viscosity runs as follows: (313.15 K, 101 kPa) 9.65 ± 0.39 mPa·s [study A] and 9.13 ± 0.13 mPa·s [study B] and 9.407 ± 0.31 mPa·s [study C] and 9.684 ± 0.25 mPa·s [study D] and 9.684 ± 0.063 mPa·s [study E] and 9.446 ± 0.053 mPa·s [study F] and 10.01 ± 0.93 mPa·s [study G] and 8.76 ± 0.1 mPa·s [study H]; (318.15 K, 101 kPa) 8.11 ± 0.33 mPa·s [study A] and 8.34 ± 0.23 mPa·s [study B] and 8.04 ± 0.18 mPa·s [study C] and 8.203 ± 0.21 mPa·s [study D] and 8.203 ± 0.054 mPa·s [study E] and 7.453 ± 0.17 mPa·s [study F]; (323.15 K, 100 kPa) 7.121 ± 0.71 mPa·s [study A] and 6.75 ± 0.6 mPa·s [study B] and 6.75 ± 0.27 mPa·s [study C] and 6.933 ± 0.052 mPa·s [study D] and 6.97 ± 0.021 mPa·s [study E] and 6.588 ± 0.11 mPa·s [study F]; (323.15 K, 101 kPa) 6.78 ± 0.28 mPa·s [study A] and 6.666 ± 0.093 mPa·s [study B] and 6.918 ± 0.69 mPa·s [study C] and 7.02 ± 0.15 mPa·s [study D] and 7.032 ± 0.18 mPa·s [study E] and 7.032 ± 0.047 mPa·s [study F] and 7.121 ± 0.66 mPa·s [study G] and 6.51 ± 0.07 mPa·s [study H].
As for `CCC(=O)c1ccccc1`, the viscosity (308.15 K, 101 kPa) is 1.518 ± 0.047 mPa·s [study A] and 1.468 ± 0.013 mPa·s [study B] and 1.469 ± 0.061 mPa·s [study C] and 1.54 ± 0.035 mPa·s [study D] and 1.468 ± 0.02 mPa·s [study E] and 1.468 ± 0.019 mPa·s [study F].
